The other results are listed elsewhere or left out.
How the values were obtained:
HSkMC = human skeletal muscle cells; assay: cytotoxicity call (relative viability < 0.9); conditions: 10 µM
HepG2 = assay: cytotoxicity call (relative viability < 0.9); conditions: 10 µM
S. aureus RN4220 = assay: growth inhibition call (relative growth <= 0.2); conditions: 50 µM

CO[C@@H]1CN(C)C(=O)c2ccc(NC(=O)Nc3ccc(Cl)cc3)cc2OC[C@@H](C)N(C(=O)Nc2c(C)noc2C)C[C@@H]1C
inactive: cytotoxicity call (HSkMC) | cytotoxicity call (HepG2) | growth inhibition call (S. aureus RN4220)

C[C@H]1CN([C@@H](C)CO)C(=O)c2c(c3ccccc3n2C)-c2ccccc2CO[C@@H]1CN(C)Cc1cccc2c1OCCCO2
inactive: cytotoxicity call (HSkMC) | cytotoxicity call (HepG2) | growth inhibition call (S. aureus RN4220)

CN1CCN(C(=O)C[C@H]2CC[C@H](NC(=O)Cc3ccccn3)[C@H](CO)O2)CC1
inactive: cytotoxicity call (HSkMC) | cytotoxicity call (HepG2) | growth inhibition call (S. aureus RN4220)

C[C@@H]1CN([C@@H](C)CO)C(=O)c2cc(NC(=O)c3ccccc3)ccc2O[C@@H](C)CCCCO[C@@H]1CN(C)C(=O)c1ccccc1
inactive: cytotoxicity call (HSkMC) | cytotoxicity call (HepG2) | growth inhibition call (S. aureus RN4220)

CC1(C)OCC(CO)([N+](=O)[O-])CO1
inactive: cytotoxicity call (HSkMC) | cytotoxicity call (HepG2) | growth inhibition call (S. aureus RN4220)

C[C@H](CO)N1C[C@H](C)[C@H](CN(C)S(=O)(=O)c2ccc(Oc3ccccc3)nc2)OCc2cnnn2CCCC1=O
inactive: cytotoxicity call (HSkMC) | cytotoxicity call (HepG2) | growth inhibition call (S. aureus RN4220)

CN(C)CC(=O)N[C@H]1CC[C@H](CCNS(=O)(=O)c2ccccc2)O[C@@H]1CO
inactive: cytotoxicity call (HSkMC) | cytotoxicity call (HepG2) | growth inhibition call (S. aureus RN4220)

COc1ccc(NC(=O)N[C@@H]2CC[C@@H](CCNC(=O)CN3CCOCC3)O[C@H]2CO)cc1
inactive: cytotoxicity call (HSkMC) | cytotoxicity call (HepG2) | growth inhibition call (S. aureus RN4220)

CCCC#Cc1cnc2c(c1)C(=O)N([C@H](C)CO)C[C@H](C)[C@H](CN(C)S(=O)(=O)c1cn(C)cn1)O2
inactive: cytotoxicity call (HSkMC) | cytotoxicity call (HepG2) | growth inhibition call (S. aureus RN4220)

Cc1cccc(S(=O)(=O)N2C[C@H](O)COC[C@@H]3O[C@H](CC(=O)NCc4ccc5c(c4)OCO5)CC[C@H]32)c1
inactive: cytotoxicity call (HSkMC) | cytotoxicity call (HepG2) | growth inhibition call (S. aureus RN4220)
